Here are results for 86 molecules from article PMC4336329 (PLoS ONE, 2015).

Hit rate of the full screen: of about 310,000 compounds, about 14,000 (4.5%) showed an effect of 50% or more. Effects have a minus sign here. This is one part of the list.
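Also: peak tail current of the secondary pulse compared with the same well before compound.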

The target in this assay is human ether-à-go-go-related gene (hERG) potassium channel (human, UniProt Q12809). Put plainly: primary screen, population patch clamp on CHO cells stably expressing hERG.
Chain of human ether-à-go-go-related gene (hERG) potassium channel (Q12809 whole entry, looked up): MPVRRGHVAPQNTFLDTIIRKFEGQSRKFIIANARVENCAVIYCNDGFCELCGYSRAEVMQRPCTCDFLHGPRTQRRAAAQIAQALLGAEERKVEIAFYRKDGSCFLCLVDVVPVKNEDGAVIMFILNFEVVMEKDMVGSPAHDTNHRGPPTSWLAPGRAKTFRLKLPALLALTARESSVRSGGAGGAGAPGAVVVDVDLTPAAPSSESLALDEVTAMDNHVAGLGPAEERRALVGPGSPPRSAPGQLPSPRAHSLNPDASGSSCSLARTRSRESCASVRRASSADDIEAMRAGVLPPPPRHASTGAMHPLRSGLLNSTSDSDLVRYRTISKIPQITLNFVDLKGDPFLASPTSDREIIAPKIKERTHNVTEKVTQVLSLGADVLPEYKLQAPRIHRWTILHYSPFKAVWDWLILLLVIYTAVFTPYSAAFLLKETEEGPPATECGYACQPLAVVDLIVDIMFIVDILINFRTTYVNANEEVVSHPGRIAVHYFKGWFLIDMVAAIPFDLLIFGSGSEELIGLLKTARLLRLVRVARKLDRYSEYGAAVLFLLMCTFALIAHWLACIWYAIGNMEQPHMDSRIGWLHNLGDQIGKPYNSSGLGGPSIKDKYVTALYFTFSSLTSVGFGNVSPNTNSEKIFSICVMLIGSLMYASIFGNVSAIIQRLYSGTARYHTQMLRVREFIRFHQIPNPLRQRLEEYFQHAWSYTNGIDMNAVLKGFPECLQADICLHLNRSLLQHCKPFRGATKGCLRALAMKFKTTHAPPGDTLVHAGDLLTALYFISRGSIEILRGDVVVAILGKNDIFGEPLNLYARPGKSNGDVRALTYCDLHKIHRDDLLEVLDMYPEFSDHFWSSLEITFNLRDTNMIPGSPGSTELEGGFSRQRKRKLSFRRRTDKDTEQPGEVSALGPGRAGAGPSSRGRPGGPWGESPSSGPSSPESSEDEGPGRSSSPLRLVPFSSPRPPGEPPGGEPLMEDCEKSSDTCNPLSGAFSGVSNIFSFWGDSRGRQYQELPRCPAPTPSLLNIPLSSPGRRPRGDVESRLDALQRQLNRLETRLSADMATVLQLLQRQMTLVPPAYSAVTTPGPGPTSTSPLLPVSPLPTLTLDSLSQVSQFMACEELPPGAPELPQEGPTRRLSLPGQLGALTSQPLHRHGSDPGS
Consider `CN1C(=O)C(CC(=O)NCCc2ccccc2)N(NC(=O)c2cccc(F)c2)C1=S` (centres unmarked), for which the “hERG current change (%, negative = inhibition) at 10uM” value is 11.3%.
Under `COc1cc(NS(=O)(=O)c2ccc3c(c2)NC(=O)CO3)cc(OC)c1` stands -0.551%; under `Cc1ccc(C(=O)N2CCCC(Nc3ccc(C)c(C)c3)C2)c(=O)[nH]1` (centres unmarked), -50.3%.
With `COC(C(=O)Nc1ccc(NC(=O)C(OC)c2ccccc2)cc1)c1ccccc1` (centres unmarked), the “hERG current change (%, negative = inhibition) at 10uM” value is recorded as 13.7%.
The value for `CC(C)CCNC(=O)CN(Cc1cccs1)C(=O)CCC(=O)Nc1nccs1` was -10.6%.
Under `COCCCn1c(=O)/c(=C\c2cccc(OC)c2OC)s/c1=C(/C#N)C(=O)Nc1ccc(C(=O)O)cc1` stands 9.33%.
Under `COC(=O)c1ccc(SCC(=O)NC2CCCC2)c([N+](=O)[O-])c1` stands -1.54%.
With `CCOc1cccc(/C=N/Nc2nc(N3CCCC3)nc(N3CCCC3)n2)c1O`, the “hERG current change (%, negative = inhibition) at 10uM” value worked out at 8.34%.
Under `OC1/C(=C/c2ccccc2C(F)(F)F)N2CCC1CC2` (centres unmarked) stands 9.66%; under `Cc1c(N2C(=O)c3ccccc3C2=O)c(=O)n(-c2ccccc2)n1C`, 2.8%.
The value for `O=C(NC(CO)(CO)CO)c1coc(=O)c(Br)c1` was 3.37%; that for `COc1ccc(C(=O)NC2=Nc3ccccc3N=C(C)C2c2ccccc2)cc1` (centres unmarked) was 1.66%; that for `COc1ccccc1Nc1nccc(N(C)C)c1C#N` was 24.5%.
On to `O=c1[nH]c(-[n+]2ccc3ccccc3c2)c(/C=N/N=C(\[O-])c2ccccc2)s1`, for which the “hERG current change (%, negative = inhibition) at 10uM” value is 9.89%.
The value for `Cn1c(-c2ccccc2)nc2cnccc21` was -0.408%; that for `Cc1cc(OC(=O)c2ccc(F)cc2)c([N+](=O)[O-])c(=O)[nH]1` was 15.6%; that for `O=C(N/N=C/c1ccco1)c1ccccn1` was -5.91%.
Under `Cc1cc(NC(=O)COC(=O)c2c(C)nn(Cc3ccccc3)c2C)no1` stands 1.23%; under `Cc1ccc(S(=O)(=O)N2CCC(=O)N(C(COCc3cccc(C(F)(F)F)c3)Cc3ccccc3)CC2)cc1` (centres unmarked), -1.78%; under `CCCCn1nc2cc(C(=O)NCC34CC5CC(CC(C5)C3)C4)ccc2c1OC`, -6.83%.
Turning to `COc1ccc(F)cc1C(=O)C1CCCN(Cc2c[nH]c3ccccc23)C1` (centres unmarked), the “hERG current change (%, negative = inhibition) at 10uM” value is recorded as -63.8%.
The value for `O=C(NCc1ccc(F)cc1)c1cccc(S(=O)(=O)N2CCCC2)c1` was -35.8%; that for `O=C(O)CC(CC(=O)Nc1ccc(Oc2ccccc2)cc1)c1ccccc1` (centres unmarked) was 11.7%; that for `O=C(O)c1ccccc1C(=O)NNc1ccc(F)cc1F` was -0.769%.
Under `CCOC(=O)CN(C(=O)CSc1nnc(-c2cccc(OC)c2)o1)c1ccc(F)cc1` stands -46.8%; under `CC1CCN(C2(O)C(=O)Nc3ccc(Br)cc32)CC1` (centres unmarked), 19.4%.
The value for `COc1ccc(C2=NN(CN3C(=O)C(=O)c4ccccc43)C(c3ccc(OC)cc3)C2)cc1` (centres unmarked) was 9.84%; that for `CCOC(=O)c1ccccc1NC(=O)N[C@@H](C)C(=O)OC` was 1.39%.
Turning to `COc1ccc(N2CCN(C(=O)c3cccc(N4C(=O)C5C6C=CC(C6)C5C4=O)c3)CC2)cc1` (centres unmarked), the “hERG current change (%, negative = inhibition) at 10uM” value is given as -17.6%.
For `COc1cccc(C(=O)/C=C/Nc2ccc(S(=O)(=O)Nc3cnc4ccccc4n3)cc2)c1`, the “hERG current change (%, negative = inhibition) at 10uM” value was -11.1%.
For `O=C1CC2C(CC(OC(=O)c3ccc(-c4ccccc4)cc3)C2CO)O1` (centres unmarked), the “hERG current change (%, negative = inhibition) at 10uM” value is recorded as -8.02%.
Regarding `O=C(Nc1ccc2c(c1)OCO2)C1CC(=O)N(c2ccc(F)cc2)C1` (centres unmarked), the “hERG current change (%, negative = inhibition) at 10uM” value is on record as 11.7%.
The value for `COc1ccccc1N1CCN(C2CC(=O)N(c3ccc(Cl)cc3)C2=O)CC1` (centres unmarked) was 12.3%.
Under `Cc1ccc(OCc2cc(C(=O)N3CCN(C4CCCC4)CC3)no2)cc1C` stands -18.4%; under `COc1ccc(NC(=O)CSc2nc(=O)n(CCN3CCOCC3)c3c2CCC3)cc1`, 0.105%.
The value for `COc1ccc(S(=O)(=O)N2CCCCCC2)cc1C(=O)N(C)CC(=O)Nc1ccccc1Cl` was -19.7%.
For `C#CCOCCOCCOCCNc1nc(N2CCN(C(=O)Cn3cc(CCO)nn3)CC2)nc(N2CCN(C(=O)[C@H]([C@@H](C)O)n3cc(CCCC[NH3+])nn3)CC2)n1.[Cl-]`, the “hERG current change (%, negative = inhibition) at 10uM” value worked out at 12.3%.
The value for `Cc1cccc(C(=O)NCc2ccco2)c1` was 16.6%; that for `COc1ccc(OC)c(NC(=O)CSc2nnc(Cn3c(=O)sc4ccccc43)n2C)c1` was -48.6%.
The value for `COc1cc(CNCc2ccccn2)ccc1OCc1ccccc1Cl.Cl` was -58.3%; that for `CCCCCCn1c(SCC(=O)c2ccccc2)nc2c1c(=O)[nH]c(=O)n2C` was -26%.
The value for `COc1cccc(CC(=O)NCC2(N3CCCCC3)CCCCC2)c1` was 25%; that for `NC(=O)C1CCN(C2CC(=O)N(c3cccc(F)c3)C2=O)CC1` (centres unmarked) was -1.68%; that for `COc1ccc(CCNC2CC(=O)N(C3CCCCC3)C2=O)cc1OC` (centres unmarked) was -7.18%.
As to `COc1ccc(-c2onc(C)c2-c2cnn(-c3ccccc3)c2)c(O)c1`, the “hERG current change (%, negative = inhibition) at 10uM” value is on record as 3.71%.
The value for `CCOc1ccc(C(CC(=O)O)NC(=O)c2cccs2)cc1` (centres unmarked) was -8.2%.
For `O=C(CN1C(=O)CSc2ccc(S(=O)(=O)N3CCCCC3)cc21)NCc1ccccc1`, the “hERG current change (%, negative = inhibition) at 10uM” value was -38%.
The value for `CCOc1cc2[nH]c(=S)n(CCOC)c(=O)c2cc1OCC` was 6.27%; that for `O=C(COC(=O)CCSc1ccccc1)NCc1ccccc1Cl` was 22.4%.
Under `COc1ccc(-n2c(C)c(C(C)=O)c(C(C)=O)c2C)cc1OC` stands 23.3%; under `N#Cc1ccc(OCCN2C(=O)NC3(CCSC3)C2=O)cc1` (centres unmarked), -57.2%.
Under `CC(C)N1CCN(c2ccc(S(=O)(=O)N3CCOCC3)cn2)CC1` stands 8.48%; under `CC(=O)c1c(NCc2ccccc2)nc(=O)n(-c2ccccc2)c1C`, -0.97%; under `COc1cc(C=Nc2cccc(C)c2)c(O)c([N+](=O)[O-])c1`, 3.12%.
Regarding `COc1ccc(OC)c(CN2CCN(C(=O)[C@@H](NC(=O)c3cccc(C)c3)C(C)C)CC2)c1`, the “hERG current change (%, negative = inhibition) at 10uM” value is -25.4%.
For `CC1CCCCC1NC(=O)CCS(=O)(=O)c1ccc2c(c1)NC(=O)CO2` (centres unmarked), the “hERG current change (%, negative = inhibition) at 10uM” value was 12.5%.
The value for `Cc1ccc(CN(C)C2CCN(C)CC2)cc1` was 16.8%.
For `CNc1ccccc1C(=O)OCC(=O)N1CCN(c2ccc(OC)cc2)CC1`, the “hERG current change (%, negative = inhibition) at 10uM” value was 2%.
For the molecule `Nc1cccc(-n2nnnc2CN2CCOCC2)c1`, the “hERG current change (%, negative = inhibition) at 10uM” value is 12.8%.
Under `CC(C)c1nc(CNC(=O)CC2C(=O)NCCN2Cc2ccc(F)cc2Cl)cs1` (centres unmarked) stands 4.2%; under `COc1ccc(/C=N/NC(=O)c2ccc3nc[nH]c3c2)cc1OC`, 20.7%.
For `CC(C)c1cccc(OCC(=O)Nc2ccc(S(=O)(=O)Nc3ccccn3)cc2)c1`, the “hERG current change (%, negative = inhibition) at 10uM” value turned out to be 30.8%.
The value for `Cc1nc(CNS(=O)(=O)c2cccs2)cs1` was -3.02%; that for `Cc1cc(=O)[nH]c(SCc2nc3ccccc3s2)n1` was 7.29%; that for `COc1ccc(NC(=S)NCCc2c[nH]c3ccccc23)cc1` was -7.49%.
Under `COc1ccc(CN2CCN(Cc3cc4ccccc4o3)CC2CCO)cc1C` (centres unmarked) stands -40.4%.
Under `CC(C)c1ccc(NC(=O)CSc2nc(=O)n(CCN3CCOCC3)c3c2CCC3)cc1` stands -41.5%.
Regarding `CCC(=O)N(Cc1cc2cc(OC)ccc2[nH]c1=O)c1ccc(C)cc1C`, the “hERG current change (%, negative = inhibition) at 10uM” value is -10.4%.
Under `CC(NS(=O)(=O)c1ccc(Br)cc1)C(c1cccs1)N1CCOCC1` (centres unmarked) stands -28.5%.
Under `COC(=O)CSc1nnc(-c2ccc(S(=O)(=O)N3CCC(C)CC3)cc2)o1` stands 8.36%; under `COc1ccc(N2C(=O)NC(=O)/C(=C\c3cn(CC(=O)N4CCOCC4)c4ccccc34)C2=O)c(OC)c1`, 2.01%.
The value for `CC(NCc1ccccc1Cl)C(=O)Nc1ccc(S(=O)(=O)N2CCCC2)cc1` (centres unmarked) was -0.602%.
Consider `CC1(CCc2ccccc2)NC(=O)N(Cc2cc([N+](=O)[O-])cc3c2OCOC3)C1=O` (centres unmarked), for which the “hERG current change (%, negative = inhibition) at 10uM” value worked out at 2.92%.
Under `O=C(Cc1ccccc1)n1nc(-c2ccco2)nc1SCc1ccccc1` stands -0.242%; under `CN(C)S(=O)(=O)N1C(=O)c2ccccc2C1=O`, 35.3%; under `O=C(CN1C(=O)c2ccccc2C1=O)Nc1ccccc1C(F)(F)F`, 0.726%.
Under `Cc1cccc(-n2ncc3c(=O)[nH]c(SCC(=O)NCCC4=CCCCC4)nc32)c1` stands 10.9%; under `COCc1cc(C)nc(SCc2ccc(Cl)cc2)c1C#N`, -8.83%.
Turning to `COc1ccc(N2Cc3cccc(C(=O)O)c3C2=O)cc1`, the “hERG current change (%, negative = inhibition) at 10uM” value is -1.27%.
Under `O=C(/C=C/c1ccccc1)Nc1cc(NC(=O)/C=C/c2ccccc2)cc(C(=O)O)c1` stands 21.4%; under `C[C@@H](OC(=O)N1CCCCC1)[C@H]1O[C@]2(C)CCCC[C@H]1O2`, 15.8%.
Consider `COc1ccc(-n2cc(CNCc3cccnc3)c(-c3cccc(F)c3)n2)cc1`, for which the “hERG current change (%, negative = inhibition) at 10uM” value is reported as -47.7%.
The value for `CCOC(=O)C1=C(CN2CCSCC2)NC(=O)NC1c1cccc([N+](=O)[O-])c1` (centres unmarked) was -10.7%; that for `c1cncc(-c2nnc(-c3cccnc3)nn2)c1` was 2.41%; that for `CCCCNC(=O)Cc1coc2ccc3ccccc3c12` was -12.6%.
Under `O=C(NCc1ccc2c(c1)OCO2)c1c(O)c2cccc3c2n(c1=O)CCC3` stands 14.3%.
